Experimental data taken from PubChem BioAssay AID463173 (ICCB-Longwood Screening Facility, Harvard Medical School, 2010).
The campaign covered roughly 52,000 compounds. About 4,300 (8.3%) were called active. Cut-off read from the data, not from the text of the source: active = survival mostly below about 52% (no sharp cut-off); inactive = mostly above about 56%. Some of the results follow.

tested on: DeltatarO mutant; assay: growth inhibition of S. aureus wild type versus tarO mutant, primary screen, teichoic acid synthesis inhibitors, RN4220, OD600 (AID 463173); settings: OD600, 18 h, hits give low values, screened at 18.75 µg/mL (by protocol)

SMILES | survival
Cc1ccc(S(=O)(=O)c2cn(C)c3cc(N4CCN(C)CC4)c(F)cc3c2=O)cc1 | inactive: 95%
CCCc1c(O)nc(SCC(=O)N(CC)CC)[nH]c1=O | inactive: 68%
Cc1cccc(C)c1-n1ncc(C(=O)Nc2ccc3c(c2)OCCO3)c1C1CCN(C(=O)OC(C)(C)C)CC1 | inactive: 96%
COc1ccc(Nc2c(-c3cc(Br)ccc3O)nc3ncccn23)cc1OC | inactive: 63%
COc1ccccc1C(=O)Nc1cc2c(cc1N1CCCCC1)n(C)c(=O)n2C | inactive: 78%
COc1ccc(N2CCN(CCCNC(=O)C3COc4ccc(OC)cc4C3)CC2)cc1 (centres undefined) | inactive: 93%
CCc1cccc2c(-c3ccccc3)nc(SCC(=O)Nc3ccccc3)nc12 | inactive: 89%
COc1ccc2c(CNCc3ccc(Cl)cc3)c(C(=O)O)n(Cc3ccccc3C)c2c1 | inactive: 97%
Cc1cccc(Nc2nnc(-n3nc(C)cc3C)c3ccccc23)c1 | inactive: 125%
O=C(Cn1cc(SCc2ccc(C(F)(F)F)cc2)c2ccccc21)N1CCCCC1 | inactive: 81%
CC(CC(=O)NCc1ccc(Cl)cc1)CC1=NS(=O)(=O)c2ccccc2N1 (centres undefined) | inactive: 84%
COc1cc(NC(=O)c2cc(-c3ccc4c(c3)OCO4)on2)cc(OC)c1OC | inactive: 115%
COc1ccc(-c2cc(C)no2)cc1S(=O)(=O)NCc1ccc(OC(C)C)cc1 | inactive: 82%
CC(=O)c1ccc(N2CCN(c3nc4c(S(=O)(=O)c5ccccc5)nnn4c4ccc(Cl)cc34)CC2)cc1 | inactive: 102%
COc1ccc(S(=O)(=O)c2cn(C)c3cc(N4CCCCC4)c(F)cc3c2=O)cc1 | inactive: 80%
COc1ccc(NC(=O)c2cnn(-c3ccc(C)cc3)c2-n2cccc2)cc1Cl | inactive: 69%
CCOC(=O)c1noc2ncnc(N(CCC(=O)OC)c3ccccc3)c12 | inactive: 117%
CCOC(=O)c1noc2ncnc(Nc3ccc(C)c(F)c3)c12 | inactive: 91%
CN1CCN(CCCNC(=O)Cn2c(-c3cccs3)cc3ccccc32)CC1 | inactive: 81%
Cc1ccc2c(c1)sc1nc(=O)n(-c3ccc(Cl)cc3)c(=O)n12 | inactive: 59%
COc1cc(N(C(=O)Cn2nnc3ccccc32)C(C(=O)NCC2CCCO2)c2ccc(F)cc2)ccc1-n1cnnn1 (centres undefined) | inactive: 105%
COc1ccc(NC(=O)C2=C(C)Nc3nc(SCc4ccccc4C)nn3C2c2ccc(Br)cc2)cc1 (centres undefined) | inactive: 80%
N#Cc1c(NC(=O)c2ccccc2)oc(-c2ccccc2)c1-c1ccccc1 | inactive: 56%

SMILES | survival
Cc1cccc(NC(=O)C2CCN(S(=O)(=O)c3cccc4nsnc34)CC2)c1C | inactive: 88%
Cc1cc(C)cc(NC(=O)CSc2nccn2-c2ccccc2)c1 | inactive: 124%
COc1ccc2[nH]cc(NC(=O)NCCO)c(=O)c2c1 | inactive: 97%
O=C(NC1CC(=O)N(c2ccccc2)C1)C1CCCCC1 (centres undefined) | inactive: 126%
Cc1cc(Br)ccc1NC(=O)c1cc2c(=O)n(C)c3cc(Cl)ccc3c2s1 | inactive: 80%
CCOC(=O)c1c(C)oc2ccc(N(C(=O)Oc3ccccc3)S(=O)(=O)c3ccccc3)cc12 | inactive: 69%
CCN1CCN(C(c2ccc(OC)cc2)c2c(O)cc(C)n(CCOC)c2=O)CC1 (centres undefined) | inactive: 70%
COc1ccc(C(CNC(=O)COc2ccc(C)cc2)N2CCCCC2)cc1 (centres undefined) | inactive: 104%
CN(C(=O)Cn1c(=O)n(CCCS(=O)(=O)C2CCCCC2)c(=O)c2ccccc21)c1ccccc1 | inactive: 84%
COc1ccccc1NC(=O)c1c(NCc2sccc2C)sc2c1CCCCC2 | inactive: 85%
CN(C(=O)c1cc(-c2ccccc2O)on1)c1ccccc1 | active: 40%
CCC1=NN(C(=O)c2ccccc2O)C(O)(c2ccccc2)C1 (centres undefined) | active: 1%
CCCCOc1c(Cl)cc(C(=O)N(Cc2ccc(C)o2)C2CCS(=O)(=O)C2)cc1Cl (centres undefined) | inactive: 69%
CC(=O)N(CCCCN1C(=O)c2ccccc2C1=O)c1ccc(Cl)cc1 | inactive: 80%
Cc1cc(C)c2oc(C(=O)N(Cc3ccc(F)cc3)C3CCS(=O)(=O)C3)cc(=O)c2c1 (centres undefined) | inactive: 108%
CSc1ccc(CCNc2ncnc3onc(C)c23)cc1 | inactive: 98%
COC(=O)c1ccc(Cl)cc1NC(=O)N1CC(C)Oc2ccccc21 (centres undefined) | inactive: 95%
Cc1ccc(-n2nc3c(=O)n(CC(=O)Nc4ccccc4F)nc(C)c3c2C)c(C)c1 | inactive: 88%
CCOC(=O)c1ccc(NC(=O)c2cc3cc(C)ccc3n2C)cc1 | inactive: 69%
Cc1cc(NS(=O)(=O)c2ccc(NC(=O)COc3ccc(Cl)cc3)cc2)nc(C)n1 | inactive: 54%
Cc1ccc(NC(=O)Nc2nnc(N(C)Cc3ccccc3)s2)cc1 | inactive: 82%
Cc1ccc2cc(CN(CCO)C(=O)NCc3ccccc3)c(=O)[nH]c2c1 | inactive: 75%
COc1ccc2c(CNCc3ccc(C)o3)c(C(=O)O)n(Cc3ccccc3)c2c1 | inactive: 80%

SMILES | survival
O=C(Cn1c(=O)oc2ccccc21)NCc1cccc(Cl)c1 | inactive: 100%
CCOc1cc(-c2nc(-c3ccc(-c4ccc(C)cc4)nc3OC)no2)cc(OCC)c1OCC | active: 69%
COc1ccc(C2C=C(c3ccccc3)Nc3nc(NC(=O)c4ccc(C)cc4)nn32)cc1 (centres undefined) | active: 44%
Cc1cc(C)cc(N(CC(=O)Nc2cccc(C)c2C)S(=O)(=O)c2c(C)[nH]c(=O)[nH]c2=O)c1 | inactive: 75%
Cc1cccc(CCNC(=O)c2cc3ccccn3n2)c1 | inactive: 78%
COc1ccc(Cl)cc1NC(=O)Cn1c2ncccc2c(=O)n1-c1ccc(C)c(C)c1 | inactive: 85%
CCC(=O)Nc1ccccc1-c1nc2ccccc2n(Cc2cccc(Br)c2)c1=O | inactive: 49%
COc1ccc(CN2CCCN(CC(=O)Nc3cc(C)ccc3C)S2(=O)=O)cc1 | inactive: 95%
CCOC(=O)c1sc(N2C(=O)c3oc4cc(C)c(C)cc4c(=O)c3C2c2ccc(C)cc2)nc1C (centres undefined) | inactive: 195%
O=C(Nc1ccccc1Cl)c1ccc(F)c(S(=O)(=O)NCc2ccc(Cl)c(Cl)c2)c1 | inactive: 84%
C=CCN(CC=C)C(=O)C1CCN(S(=O)(=O)c2ccc(-n3cnnn3)cc2)CC1 | inactive: 89%
CC(=O)Nc1ccc(NC(=O)CCc2c(C)nc3c(c(C)nn3-c3ccc(C)cc3)c2C)cc1 | inactive: 114%
CCN(CC)S(=O)(=O)c1nnc(NC(=O)COc2ccc(C)cc2)s1 | inactive: 88%
CC(=O)Nc1ccccc1-c1nc2ccccc2n(C(C)C(=O)Nc2cc(Cl)ccc2C)c1=O (centres undefined) | inactive: 82%
Cc1ccc(C)c(NC(=O)CSc2nnc(CNC(=O)c3ccccc3)n2-c2ccccc2)c1 | inactive: 67%
CCCn1c(SCC(=O)c2ccccc2)nnc1C(C)C | inactive: 108%
CCOc1ccc(NC(=O)c2ccc(CN3C(=O)C(C)=C(c4ccc(C)cc4)S3(=O)=O)cc2)cc1 | inactive: 91%
CC1CCN(C(c2nnnn2Cc2ccccc2)C(C)C)CC1 (centres undefined) | inactive: 98%
Cc1csc2nc(COC(=O)c3ccc(F)cc3)cc(=O)n12 | inactive: 72%
CCc1ccc2oc(C(=O)NCC(c3ccc(Cl)cc3)N3CCOCC3)c(C)c2c1 (centres undefined) | inactive: 72%
CC(=O)N1CCCc2cc(S(=O)(=O)N(CCN(C)C)Cc3ccccc3)ccc21 | inactive: 102%
CC1Cc2ccccc2N1C(=O)C1CCN(S(=O)(=O)Cc2ccccc2)CC1 (centres undefined) | inactive: 66%
Cc1ccc(-n2ncc3c(N4CCCCC4)ncnc32)cc1Cl | inactive: 72%

SMILES | survival
CCc1cccc(C)c1NC(=O)c1cc(S(=O)(=O)N(C)Cc2ccccc2)ccc1F | inactive: 123%
COc1ccc(-c2cc(OC(=O)c3ccccc3C)c3c(C)oc(C)c3c(=O)c2)cc1 | inactive: 60%
O=C1c2cccnc2C(=O)N1c1ccc(-c2nc3cc(Cl)ccc3o2)cc1 | inactive: 85%
COc1ccccc1-c1cc(C(=O)N2CCN(c3ccccc3)CC2)no1 | active: -15%
Cc1cc(C)c2c(=O)cc(C(=O)Nc3ccc(C)c(Cl)c3)oc2c1 | inactive: 94%
Cc1ccc2[nH]cc(NC(=O)NCc3ccco3)c(=O)c2c1 | inactive: 98%
CCc1ccc(C2=CC(c3cccc(C)c3)n3c(nc4ccccc43)N2)cc1 (centres undefined) | inactive: 80%
Cc1cc(C)cc(-n2nnnc2SCC(=O)Nc2cccc(NC(=O)c3ccco3)c2)c1 | inactive: 67%
COc1ccc(CNC(=O)CSCc2nc(-c3ccccc3F)oc2C)cc1 | inactive: 67%
Cc1cc(C)nc(NS(=O)(=O)c2ccc(NC(=S)NC(=O)/C=C/c3ccco3)cc2)n1 | inactive: 91%
O=C(Nc1ccc(OCc2cc(=O)n3ccsc3n2)cc1)c1ccc(F)cc1 | inactive: 101%
Cc1nnc(N2CCC(C(=O)NCCc3ccccc3)CC2)c2nn(-c3ccccc3)c(C)c12 | inactive: 74%
O=C(Nc1ccc2c(c1)OCO2)c1cc(-c2cccc(Cl)c2)on1 | inactive: 64%
CSc1ccc(/C=C(\C#N)C(=O)NC2CCCCC2)cc1 | inactive: 96%
CCC(=O)N1c2ccccc2CC1C(=O)NCCc1ccc(SC)cc1 (centres undefined) | inactive: 90%
COCCn1c(-c2ccccc2)c(C)n2c3c(=O)n(C)c(=O)n(C)c3nc12 | inactive: 93%
Cn1nnnc1SCCCNCc1cc(Br)ccc1OCc1ccccc1 | inactive: 70%
Cc1nc2sccn2c(=O)c1S(=O)(=O)Nc1ccc(N2CCN(C)CC2)cc1 | inactive: 106%
O=C(O)C1CCCN1c1ncccn1 (centres undefined) | inactive: 81%
Cc1oc(-c2ccccc2Cl)nc1CS(=O)CC(=O)N1CCN(c2cccc(C(F)(F)F)c2)CC1 (centres undefined) | inactive: 131%
